Assay results as given in patent US20260265393A1.

Legend:
[1] = biological target: CD27-mFc (Kangdai) (human) (UniProt P26842); test: ELISA on coated CD27-mFc
[2] = biological target: human CD27 (transmembrane protein) on the cell membrane (human) (UniProt P26842); test: flow cytometry on CHO cells expressing human CD27

CD27 monoclonal antibody Varlilumab (1F5)
EC50 [1]: 0.0603 µg/mL and 0.404 nM [columns of one line] | EC50 [2]: 0.386 µg/mL and 2.58 nM [columns of one line]

A number of entries come with more than one value. This list holds those alone. An entry can have further records. The values listed for one entry appear to be repeats on other runs, samples or individuals.
